The densities may have been worked out from excess volumes.
Experiment: xn = mol fraction of the nth substance listed
Conditions: 100 kPa

CC[NH+](C)CC.CS(=O)(=O)[O-] + O
Conditions	mass density [kg/m3]
298.15 K, x1 = 0.0155	1016.5
298.15 K, x1 = 0.0356	1036.7
298.15 K, x1 = 0.0571	1054.5
298.15 K, x1 = 0.0757	1067.2
298.15 K, x1 = 0.1234	1090.5
298.15 K, x1 = 0.1582	1100.8
298.15 K, x1 = 0.206	1111.3
298.15 K, x1 = 0.3246	1124.2
298.15 K, x1 = 0.5018	1131.6
298.15 K, x1 = 0.5783	1133.3
298.15 K, x1 = 0.7782	1135.9
303.15 K, x1 = 0.0155	1014.8
303.15 K, x1 = 0.0356	1034.7
303.15 K, x1 = 0.0571	1052.1
303.15 K, x1 = 0.0757	1064.6
303.15 K, x1 = 0.1234	1087.5
303.15 K, x1 = 0.1582	1097.8
303.15 K, x1 = 0.206	1108.1
303.15 K, x1 = 0.4263	1126.1
303.15 K, x1 = 0.5018	1128.2
303.15 K, x1 = 0.5783	1129.9
303.15 K, x1 = 0.7782	1132.5
308.15 K, x1 = 0.0356	1032.5
308.15 K, x1 = 0.0571	1049.6
308.15 K, x1 = 0.0757	1061.9
308.15 K, x1 = 0.0967	1073.8
308.15 K, x1 = 0.1234	1084.5
308.15 K, x1 = 0.1582	1094.7
308.15 K, x1 = 0.206	1105
308.15 K, x1 = 0.3246	1117.7
308.15 K, x1 = 0.4263	1122.8
308.15 K, x1 = 0.6771	1128
313.15 K, x1 = 0.0155	1011
313.15 K, x1 = 0.0356	1030.2
313.15 K, x1 = 0.0757	1059.2
313.15 K, x1 = 0.0967	1070.9
313.15 K, x1 = 0.1234	1081.5
313.15 K, x1 = 0.1582	1091.6
313.15 K, x1 = 0.206	1101.7
313.15 K, x1 = 0.5018	1121.6
313.15 K, x1 = 0.5783	1123.3
313.15 K, x1 = 0.6771	1124.6
313.15 K, x1 = 0.7782	1125.7
318.15 K, x1 = 0.0155	1008.8
318.15 K, x1 = 0.0356	1027.8
318.15 K, x1 = 0.0571	1044.4
318.15 K, x1 = 0.0757	1056.4
318.15 K, x1 = 0.0967	1067.9
318.15 K, x1 = 0.1234	1078.5
318.15 K, x1 = 0.206	1098.5
318.15 K, x1 = 0.3246	1111.1
318.15 K, x1 = 0.4263	1116.1
318.15 K, x1 = 0.5018	1118.2
318.15 K, x1 = 0.5783	1119.9
318.15 K, x1 = 0.6771	1121.3
318.15 K, x1 = 0.7782	1122.4
323.15 K, x1 = 0.0155	1006.5
323.15 K, x1 = 0.0356	1025.2
323.15 K, x1 = 0.0571	1041.7
323.15 K, x1 = 0.0757	1053.5
323.15 K, x1 = 0.0967	1064.9
323.15 K, x1 = 0.1234	1075.4
323.15 K, x1 = 0.1582	1085.2
323.15 K, x1 = 0.206	1095.3
323.15 K, x1 = 0.3246	1107.8
323.15 K, x1 = 0.4263	1112.8
323.15 K, x1 = 0.5018	1114.9
323.15 K, x1 = 0.5783	1116.6
323.15 K, x1 = 0.6771	1118
323.15 K, x1 = 0.7782	1119
328.15 K, x1 = 0.0155	1004
328.15 K, x1 = 0.0356	1022.6
328.15 K, x1 = 0.0571	1038.9
328.15 K, x1 = 0.0757	1050.6
328.15 K, x1 = 0.0967	1061.9
328.15 K, x1 = 0.1234	1072.2
328.15 K, x1 = 0.3246	1104.5
328.15 K, x1 = 0.4263	1109.5
328.15 K, x1 = 0.5783	1113.3
328.15 K, x1 = 0.6771	1114.6
333.15 K, x1 = 0.0155	1001.4
333.15 K, x1 = 0.0356	1019.8
333.15 K, x1 = 0.0571	1036
333.15 K, x1 = 0.0757	1047.5
333.15 K, x1 = 0.1234	1069
333.15 K, x1 = 0.1582	1078.8
333.15 K, x1 = 0.206	1088.7
333.15 K, x1 = 0.4263	1106.2
333.15 K, x1 = 0.5783	1110
333.15 K, x1 = 0.6771	1111.3
333.15 K, x1 = 0.7782	1112.4
338.15 K, x1 = 0.0155	998.7
338.15 K, x1 = 0.0356	1017
338.15 K, x1 = 0.0757	1044.4
338.15 K, x1 = 0.0967	1055.6
338.15 K, x1 = 0.1234	1065.8
338.15 K, x1 = 0.1582	1075.5
338.15 K, x1 = 0.206	1085.3
338.15 K, x1 = 0.7782	1109.1
343.15 K, x1 = 0.0155	996.4
343.15 K, x1 = 0.0356	1014
343.15 K, x1 = 0.0571	1029.9
343.15 K, x1 = 0.0757	1041.1
343.15 K, x1 = 0.0967	1052.4
343.15 K, x1 = 0.1234	1062.5
343.15 K, x1 = 0.1582	1072.1
343.15 K, x1 = 0.206	1082
343.15 K, x1 = 0.4263	1099.6
343.15 K, x1 = 0.5018	1101.7
343.15 K, x1 = 0.5783	1103.4
343.15 K, x1 = 0.6771	1104.7
343.15 K, x1 = 0.7782	1105.8
348.15 K, x1 = 0.0155	993.8
348.15 K, x1 = 0.0356	1011
348.15 K, x1 = 0.0571	1026.7
348.15 K, x1 = 0.0757	1037.8
348.15 K, x1 = 0.0967	1049.1
348.15 K, x1 = 0.1234	1059.2
348.15 K, x1 = 0.1582	1068.8
348.15 K, x1 = 0.206	1078.6
348.15 K, x1 = 0.3246	1091.1
348.15 K, x1 = 0.4263	1096.2
348.15 K, x1 = 0.5018	1098.4
348.15 K, x1 = 0.7782	1102.5
